Some of the results follow.
These sequences were tested against T1, OsWOX13 (Oryza sativa, UniProt Q5QMM3 1-267) (assay: protein-binding microarray (RPBM); PBS, 2% BSA, 51.3 ng/ul salmon testes DNA, 50 uM zinc acetate, 200 nM TF, 25 C, 1 h; high values mean tight binding). Settings: protein: recombinant; tags: N-terminal polyhistidine and DsRed monomer fusion (pET32a); label: CyDye5-dUTP incorporated in the synthesized complementary strand; 3' TTTTT single-stranded linker to array surface; dsDNA, one strand shown.
T1 sequence: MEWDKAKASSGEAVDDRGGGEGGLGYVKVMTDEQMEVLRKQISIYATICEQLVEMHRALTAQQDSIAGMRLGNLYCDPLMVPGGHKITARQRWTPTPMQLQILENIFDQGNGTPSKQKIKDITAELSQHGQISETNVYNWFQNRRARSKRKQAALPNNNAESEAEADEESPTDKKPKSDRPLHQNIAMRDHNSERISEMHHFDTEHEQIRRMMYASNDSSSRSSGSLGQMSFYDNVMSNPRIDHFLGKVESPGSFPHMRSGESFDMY
Outline: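 For the binding signal, per-feature fluorescence intensity was read in arbitrary units on an Axon 4000B scanner. Before scanning, a 2% BSA-blocked custom Agilent array made double-stranded with Cy5-dUTP was washed after 1 h at 25 °C with 200 nM protein and 50 µM zinc acetate. The proteins were Ni–NTA-purified transcription factors with N-terminal polyhistidine and DsRed fusions, expressed in E. coli BL21-CodonPlus.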
“AATAACATTGATGTAATTAATCACTGATTTTGAAAAGAATCGGAGTCACCTAGTGCAG” was tested, and the binding signal was 12400 fluorescence intensity (a.u.). For “TCCCAATTAAGTCAATCAGTAATAATAAATAATTATGAACCGGAGTCACCTAGTGCAG”, the binding signal was 32500 fluorescence intensity (a.u.). “TTATATAATTGTCATGATGAATTACTGCCTTGTCATCTGACGGAGTCACCTAGTGCAG” was tested, and the binding signal was 30000 fluorescence intensity (a.u.). For “ATATAACTGATCTCCGAAAATTTTGTATATGGATTTGCGTCGGAGTCACCTAGTGCAG”, the binding signal was 14800 fluorescence intensity (a.u.). “CTCCCGTGCAGTTGCCAGTTGATTGGTTCAGCGTGGCTGCCGGAGTCACCTAGTGCAG” was tested, and the binding signal was 9720 fluorescence intensity (a.u.). In the case of “TCCTAAATTTAGCAACTTGTCAGGACACAAACTACAAGAACGGAGTCACCTAGTGCAG”, the binding signal is reported as 6420 fluorescence intensity (a.u.). For “GCCTGATGTGTTGATGTGCTGCTGTTCAGACTTTGAACCTCGGAGTCACCTAGTGCAG”, the binding signal was 5170 fluorescence intensity (a.u.). In the case of “TGATGATAGGCTTTGATCCCTAGAGCTTAATTCACTCCAGCGGAGTCACCTAGTGCAG”, the binding signal is reported as 4770 fluorescence intensity (a.u.). For “TCCTTGATTGTTATACCTCTTCTCTTCTTATTAATACATGCGGAGTCACCTAGTGCAG”, the binding signal was 35600 fluorescence intensity (a.u.). “TCCAATCAACAATGTGAACTCGCTAACACCATTCTAGTAGCGGAGTCACCTAGTGCAG” was tested, and the binding signal was 6300 fluorescence intensity (a.u.). With “TGTCTTATTTAATAATTTTCTATGATTAATATTTTGTTATCGGAGTCACCTAGTGCAG” the binding signal was 11300 fluorescence intensity (a.u.). “CAGCTTCAGATTAATAAATCATTGAAATTTTCTTTTCTGGCGGAGTCACCTAGTGCAG” was tested, and the binding signal was 4340 fluorescence intensity (a.u.). For “TATGATTCTTTTCTAAAAGATTGATACGACATATCAATATCGGAGTCACCTAGTGCAG”, the binding signal was 5300 fluorescence intensity (a.u.). With “ATGATAGATTTGTTCTGAGGAGAGGAAATAGCTAGGTACCCGGAGTCACCTAGTGCAG” the binding signal was 28500 fluorescence intensity (a.u.). For “ACTTGATAGTAATTAAGTATAAATTATTACAAACTATAAACGGAGTCACCTAGTGCAG”, the binding signal was 16200 fluorescence intensity (a.u.). In the case of “TTCATATTGATATTGATGTTAATGAATTCAGTTAATATAACGGAGTCACCTAGTGCAG”, the binding signal is reported as 5440 fluorescence intensity (a.u.). “CTAAAAGTCAAATTTGATCATACATATTTATGGAGTAATACGGAGTCACCTAGTGCAG” was tested, and the binding signal was 3530 fluorescence intensity (a.u.). With “GGTATTAACTGGCAACTGGCAAGCAGGTAGTAGTACTATTCGGAGTCACCTAGTGCAG” the binding signal was 4180 fluorescence intensity (a.u.). For “TGATATCTAATTTGATATAGATTACTATAGAATGGATCAACGGAGTCACCTAGTGCAG”, the binding signal was 13200 fluorescence intensity (a.u.). “ATAATTAACTATTTACCACTCTTATAAGTGATGATAAATTCGGAGTCACCTAGTGCAG” was tested, and the binding signal was 10400 fluorescence intensity (a.u.). For “TCCAAAATTATGGATGGGTTTTATTAATAGTCTGTGTTTACGGAGTCACCTAGTGCAG”, the binding signal was 7280 fluorescence intensity (a.u.). For “TTTATGATTAGTACTTTTATTAGATGATAAAACTTGAATACGGAGTCACCTAGTGCAG”, the binding signal was 23800 fluorescence intensity (a.u.). In the case of “TGACGTGATTGAGCGCTGAGCTTTGTGCTGGACCGACGACCGGAGTCACCTAGTGCAG”, the binding signal is reported as 33500 fluorescence intensity (a.u.). In the case of “AGTTGATGATATTATGTGTTGTCCAAACAAGTACCTTAAGCGGAGTCACCTAGTGCAG”, the binding signal is reported as 4390 fluorescence intensity (a.u.). With “CTTAATTTATGTGATGATTGACATTTCATGTGGATGCTATCGGAGTCACCTAGTGCAG” the binding signal was 45400 fluorescence intensity (a.u.). “TTAAATTTTAAATTTAATACGAGTGTTTGCATTTATGGGTCGGAGTCACCTAGTGCAG” was tested, and the binding signal was 29500 fluorescence intensity (a.u.). “TTTGATTAGAATTTCGAAGATTAAACAGTAAATTTAATCGCGGAGTCACCTAGTGCAG” was tested, and the binding signal was 37200 fluorescence intensity (a.u.). In the case of “AACCCTAATTTATTCCCCTCCACCGCATCTAACACGCTAGCGGAGTCACCTAGTGCAG”, the binding signal is reported as 14700 fluorescence intensity (a.u.). For “GTTAATGAATTTAGACATATATATATATATATGTTTAGATCGGAGTCACCTAGTGCAG”, the binding signal was 37700 fluorescence intensity (a.u.). “AGCAAGCTTAATTACAATCGTTGTATACGTTTGAAGACCCCGGAGTCACCTAGTGCAG” was tested, and the binding signal was 6960 fluorescence intensity (a.u.). “CAACATTAGCAATTAAAATTGCGGGTTATTTGTAAAAGTCCGGAGTCACCTAGTGCAG” was tested, and the binding signal was 3710 fluorescence intensity (a.u.). “TAGTAATTACTAGGGAGTTACCCACGATAAAATTTTCATGCGGAGTCACCTAGTGCAG” was tested, and the binding signal was 12800 fluorescence intensity (a.u.). For “ACTAATGACGGATTAATTAGGCTTAATAAATTCGTCTCGCCGGAGTCACCTAGTGCAG”, the binding signal was 51500 fluorescence intensity (a.u.). With “CCCTTCAATCAATGCCATGACAGATACCTATGAGTACTATCGGAGTCACCTAGTGCAG” the binding signal was 33000 fluorescence intensity (a.u.). “AAATTAATTAATACAATATATTCCTGCATGCCCTGTATAACGGAGTCACCTAGTGCAG” was tested, and the binding signal was 23800 fluorescence intensity (a.u.). In the case of “GTAATTAATTAGTTAACTCTTCACGAATTAACTTACACAACGGAGTCACCTAGTGCAG”, the binding signal is reported as 40600 fluorescence intensity (a.u.). “CACCAATCATAGGCGCGCAGAGGCCACGGGGCCCCAGCCGCGGAGTCACCTAGTGCAG” was tested, and the binding signal was 5510 fluorescence intensity (a.u.). “CAGTACTGTCATTTCCAAATTGGTGTCTCATTAAACGAAACGGAGTCACCTAGTGCAG” was tested, and the binding signal was 3990 fluorescence intensity (a.u.). For “CATTAAGCACTGATTAACTGTACACGCTACCTATCTGACACGGAGTCACCTAGTGCAG”, the binding signal was 8770 fluorescence intensity (a.u.). “AGTAATGATAATCGATGTCACAGAGTAAATTTGCTGGCTCCGGAGTCACCTAGTGCAG” was tested, and the binding signal was 8360 fluorescence intensity (a.u.). With “TGAAACGGAGGAAGTAACTAATTGGAGATTTAACATCACCCGGAGTCACCTAGTGCAG” the binding signal was 3910 fluorescence intensity (a.u.). In the case of “AGTTGTGGTTAATTACGGGGTAATTTGTACCCGCGTACGTCGGAGTCACCTAGTGCAG”, the binding signal is reported as 26400 fluorescence intensity (a.u.).

Source: PMC7819943, “Rice protein-binding microarrays: a tool to detect cis-acting elements near promoter regions in rice”
